The results in this text go back to the supplement of paper PMC11417369.

The other results are listed elsewhere or left out.

The test system of this test is PfAP2-HC AP2 domain (GST-tagged). The test can be described thus: gcPBM binding intensity (ln(normalized median fluorescence intensity)); higher = stronger DNA binding. A digest of the protocol: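 Binding of GST-tagged P. falciparum DNA-binding domains, expressed in E. coli and used at about 25 μg on average, was carried out for 1 h in 1× PBS containing 1% milk, 0.2 mg/ml BSA, 0.5% salmon testes DNA and 0.03% Triton X-100. The target was an Agilent 4 × 180k array of primer-extended double-stranded 36-bp intergenic genomic probes plus negative controls, read with Alexa488 anti-GST antibody at 488 nm. Binding intensity is the highest Masliner-normalised natural-log median intensity across replicate spots of either probe orientation.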
Consider “TACAGATAATATATTGCACACGTCAGAATAATATAG [CACACA_site5036]”, for which the “gcPBM binding intensity (ln)” value is 9.94.

Consider “TGGTTAATATGTGAAAGTACATATTATATTAAAATG [XGTACX_site2636]”, for which the “gcPBM binding intensity (ln)” value turned out to be 9.49. In the case of “TATAACTTTTTTATTACACACCTATGCAATATTATA [CACACA_site6570]” it was 9.78.

Take “ATAAAATAAGATCTTTTTTTTTTTTTTTTCTTTTCT [XGTACX_negctrl_site73]”: the “gcPBM binding intensity (ln)” value worked out at 9.33. In the case of “AACAAATAAATAAATAAAAAGCAAATATGTCTATAT [GTGCAC_negctrl_site414]” it was 9.88; in that of “AAAAAGAAAAAACTTACACACATATATACAGACATG [CACACA_site550]”, 10.

“TTATAATCCATAATTGCACACAATATATTCATATTT [CACACA_site3916]”: the “gcPBM binding intensity (ln)” value came out at 9.96. In the case of “AATATACAATAAAGGTGTACACATATATGATGCAAG [XGTACX_site7607]” it was 10.1; in that of “AAAAAAAAATAAATAAATATATATAATATTTATGTT [GTGCAC_negctrl_site520]”, 9.57; in that of “ATATATATTTTTTAAACACACACATAAATATTTGTG [CACACA_site8936]”, 9.87. As for “AATACACAAATATATTGTACATATATATATATATAT [XGTACX_site2440]”, the figure is 9.79. In the case of “ACTTATTATTAATATTGTACTCTTGAAAATTGTGGA [XGTACX_site6315]” it was 9.38. On to “CATATATAAATATAAATATATATATATATATATATG [XGTACX_negctrl_site493]”, for which the “gcPBM binding intensity (ln)” value came to 9.51. In the case of “TTCTTCAAGGAAAACACATGCGCATTTTCACCAATT [TGCATGCA_site11]” it was 9.7; in that of “ATATATATATATATATGTACATATGTATATTTTTTT [XGTACX_site1299]”, 9.71; in that of “TATATATATATATGTGCATGTTCCCCATGCTTCCAT [TGCATGCA_site366]”, 9.54. As for “AAAATTATAATAATATGTACTTAAAAAATTTATATA [XGTACX_site632]”, the figure is 9.52; as for “AATATATATATATATAGTACATATTTTTATTCATTA [XGTACX_site2156]”, 9.62. As for “TATATGTATTTATATACACACATATTCTTTTGACAC [CACACA_site1206]”, the figure is 9.91; as for “TTTAAACAAGGATCCACACACCCCAAAAAAAAAAGA [CACACA_site680]”, 10.7.

For “TTTTTATTTTTGTAGTGTACTTTATTTTTTTTGTTT [XGTACX_site8887]”, the “gcPBM binding intensity (ln)” value is 9.74.

With “TATATATATATATACACACACACACCCATATATATA [CACACA_site2538]”, the “gcPBM binding intensity (ln)” value was 10.4.

With “CTGTATTCATAATTCACACAAATGGTTTATATGAAT [CACACA_site4315]”, the “gcPBM binding intensity (ln)” value came to 9.6.

Turning to “CATACATACAGATATACACACATATATAATAATATA [CACACA_site5477]”, the “gcPBM binding intensity (ln)” value stood at 9.97. “CATATTTGCACTTTCACACATAAATATATAACTATA [CACACA_site6016]”: the “gcPBM binding intensity (ln)” value is 9.85. In the case of “TAATATATGAGAAATTGTACAGAAAGGAATATGCTT [XGTACX_site5300]”, the “gcPBM binding intensity (ln)” value came to 9.64. In the case of “TTACAAATGGTTTACACACACATAATTGTATCAATT [CACACA_site4167]” it was 9.95. As for “TATATATGTTCAATATGTACATATATATAAGTGTAT [XGTACX_site5157]”, the figure is 9.7; as for “AAGAAATATTTATACACACACACAAACATATATATA [CACACA_site1912]”, 10.5. For “ATATTATTGTAGAAATGTACATATATATATATATAT [XGTACX_site1882]”, the “gcPBM binding intensity (ln)” value is 9.78. In the case of “CAAAAGTATAATAATACACACACTTTAAAAGTTAAA [CACACA_site3343]” it was 9.92. As for TAGATTCTTGAATAAGTGCAAAATATAATATTTATT, the figure is 9.41.

“AAAAATAAAATAAAATAAAATAAACATACCATATGT [CACACA_negctrl_site594]”: the “gcPBM binding intensity (ln)” value is 9.87. As for “TTATTATTTTATAACACACACATATAGATTATAGCT [CACACA_site6787]”, the figure is 9.88; as for “ATATATATATATATAAAGTGAAGTATGAGGGAAATA [XGTACX_negctrl_site497]”, 9.89; as for “TTTTGTATTTATGGATGTACATAATATGTTTTAAAC [XGTACX_site3278]”, 9.67.

In the case of “TATGTATGTATTAATGCGCACACAAAAAATAACAAT [CACACA_site8551]”, the “gcPBM binding intensity (ln)” value was determined as 9.97. As for “AAAAATTAAATATAAAGTACAAAATTAAAATCTTAA [XGTACX_site931]”, the figure is 9.62. In the case of “TTTCCATATATAGAACGTACAAAGATCTTTGTTACT [XGTACX_site8972]” it was 9.57; in that of “ATACATATATATATGTGTACATATTATATATACATA [XGTACX_site8420]”, 9.74; in that of “TATATATGGTATAATTGTACTAACGCCAACTATACC [XGTACX_site5853]”, 9.52.

In the case of “TGCATATACATATGTAGTACAATAATTTGAAAAAAA [XGTACX_site5239]”, the “gcPBM binding intensity (ln)” value stood at 9.63.

On to “TTTTTTTTTATGTGCACACAAAAGATGCTTATATTT [CACACA_site2348]”, for which the “gcPBM binding intensity (ln)” value was 9.86.

On to “TAGCTTTTGCCTTTTTTTAAAAAAAAATAAATAAAT [TGCATGCA_negctrl_site242]”, for which the “gcPBM binding intensity (ln)” value is 9.19. Regarding “TATATATATTTATACACACAAACATAATACTACTTA [CACACA_site2022]”, the “gcPBM binding intensity (ln)” value was 9.83. As for “ATAAATATATGAAATATACACACTTCTTTGGTATTA [CACACA_site456]”, the figure is 9.78. Regarding “TTTCGTAACTATTTGTGTACATATATATATATATAT [XGTACX_site2920]”, the “gcPBM binding intensity (ln)” value was determined as 9.84. “ATTTTCTTTTCCATAGTGCAATATAATTATCCATCA [GTGCAC_site9547]”: the “gcPBM binding intensity (ln)” value amounted to 9.61.

As for “ATTTTGTGCGCACACACATGCAAAAAGAAATATGAT [TGCATGCA_site261]”, the “gcPBM binding intensity (ln)” value was 10.2. In the case of “AAAGAGAGTATCTAATGTACGTATGTATGTATATAT [XGTACX_site1780]” it was 9.78; in that of “TATTATATATTAAATGCATGTAAAAATAATATTAAA [TGCATGCA_site643]”, 9.37. In the case of “ATATTATAATAAATGTGTACATATTGTAGAAATATT [XGTACX_site8101]” it was 9.81. As for “AATTATTTACCCTATACACACAAAACACGCTAAAAA [CACACA_site1211]”, the figure is 10.3; as for “ATAAATACACACAAGTGTACATACTTCTATAAATAT [XGTACX_site1845]”, 9.99. As to “ATCGTGAATAATATCTGTACATATGAACACATATAT [XGTACX_site952]”, the “gcPBM binding intensity (ln)” value turned out to be 9.79. As for “TATGACCTTAGAAATTGTACAAGAAAAAATGTTACA [XGTACX_site7084]”, the figure is 9.53; as for “ATATAAAATACATGGGTGCAATATATTAAACAAATA [GTGCAC_site9421]”, 9.76; as for “GTTATAAATAAATACACACATACAAAAATATGACGT [CACACA_site1154]”, 9.91.

As to “TCACATACATGAAAATGTACTTTTATAATTCCATAA [XGTACX_site1836]”, the “gcPBM binding intensity (ln)” value stood at 9.55. In the case of “TAAATAATTTCACGAATGACAAAGATATAATAAGTT [CACACA_negctrl_site1430]” it was 9.65.

Consider “TCTGTAAATACGTGCACACACAAATCACAAATGTGA [CACACA_site330]”, for which the “gcPBM binding intensity (ln)” value stood at 9.9. In the case of “TAAAGGTGAACAATACGTACATAAGAACTTATGAGG [XGTACX_site4216]” it was 9.73. As for “ATTCAAAAAAAATCAACACACAGTTACATAGCTCAA [CACACA_site2234]”, the figure is 10.3; as for “ATTCCATAAGTAAACACACAAATGCCAAAATTTTAT [CACACA_site7491]”, 9.86; as for “ATATATATATATATGTGTACACAAAAAATATTATAT [XGTACX_site5741]”, 9.92.

As to “GCACATATATATGAAACACACATGGAAACATCTCTT [CACACA_site3966]”, the “gcPBM binding intensity (ln)” value was found to be 9.8. As for “AATCTAATTAAAATCACACATATATTCGTCGTAATA [CACACA_site5855]”, the figure is 9.52; as for “AAAAAATTAACGAGTGCACACATATTTAGATAAAAT [CACACA_site8958]”, 10. As for “ATATATATATATATAACACACGTGTATTTATCTGTA [CACACA_site5922]”, the figure is 9.82; as for “AATGTATATTATTGCACACATATATAAAATTATGCT [CACACA_site1096]”, 9.81; as for “ATATATGTTAATAATTGTACAAATCGATAATATATA [XGTACX_site5076]”, 9.83.

For the sequence “AAAAAAATATAGATCTGTACATATATAAATATATGT [XGTACX_site511]”, the “gcPBM binding intensity (ln)” value turned out to be 9.58. Consider “TCTCTAATTTTTAATACACACAAATAAATAAATAAA [CACACA_site216]”, for which the “gcPBM binding intensity (ln)” value was 9.43.

For the sequence “ATTTGTGAATATATTCGGTGAACTTTGTTAACACAT [XGTACX_negctrl_site445]”, the “gcPBM binding intensity (ln)” value stood at 9.64.

For the sequence “ATCTCTATGATATATACACACAAATATACAAAAAAA [CACACA_site6605]”, the “gcPBM binding intensity (ln)” value amounted to 9.8.

For the sequence “TATTATATTTGTATGTGTACTTATATGGTTGTAATA [XGTACX_site4548]”, the “gcPBM binding intensity (ln)” value turned out to be 9.6. In the case of “ATGGAAAAAAAGCATTGTACATTTAAAGAAAAACAG [XGTACX_site6639]” it was 9.67. In the case of “AACGAAAACACTACGTGTACCAAATGTCCTGCCAAC [XGTACX_site5735]” it was 9.81. In the case of “AAATATTATCAAACATAAATTATTTTTATCCGTATA [CACACA_negctrl_site771]” it was 9.55; in that of “AAAAAAAAAAAAAACACACACATGCACCTCATATTA [CACACA_site556]”, 10.4.

“AGGCATAATTAAAAGTAACAATTATGGAAACGGAGT [GTGCAC_negctrl_site623]”: the “gcPBM binding intensity (ln)” value turned out to be 9.74. As for “TTTATTTATTATTAAAGTACTAAATTATATTATTAT [XGTACX_site2565]”, the figure is 9.5; as for “TATGTGCACCCATATACACACACAAATACAATGATA [CACACA_site8295]”, 10.1. With “AATTCATATACAAAAAGTACAAACGAAAAATAAAAA [XGTACX_site2900]”, the “gcPBM binding intensity (ln)” value was determined as 9.81. In the case of “ATGTTTTATATTATTAATATATATATATATATATAT [CACACA_negctrl_site331]” it was 9.81; in that of “GTTATATAAAAATATTGTACATTCTATATAAAGTCA [XGTACX_site4418]”, 9.47. In the case of “AAAAAAAAAAAAAAATGTACATATAAATAAATATAT [XGTACX_site7248]” it was 9.62; in that of “TAATATCCATATAAAACACACATCAAGGTTGTTAAC [CACACA_site175]”, 9.81.
